Measured values taken from PMC4336329 (PLoS ONE, 2015).
Hit rate of the full screen: of about 310,000 compounds, about 2,200 (0.71%) showed an effect of 50% or more. Effects have a minus sign here. The list shows a part of the results.

biological target: human ether-à-go-go-related gene (hERG) potassium channel (human, UniProt Q12809); test: primary screen, population patch clamp on CHO cells stably expressing hERG
Sequence (Q12809 whole entry, looked up): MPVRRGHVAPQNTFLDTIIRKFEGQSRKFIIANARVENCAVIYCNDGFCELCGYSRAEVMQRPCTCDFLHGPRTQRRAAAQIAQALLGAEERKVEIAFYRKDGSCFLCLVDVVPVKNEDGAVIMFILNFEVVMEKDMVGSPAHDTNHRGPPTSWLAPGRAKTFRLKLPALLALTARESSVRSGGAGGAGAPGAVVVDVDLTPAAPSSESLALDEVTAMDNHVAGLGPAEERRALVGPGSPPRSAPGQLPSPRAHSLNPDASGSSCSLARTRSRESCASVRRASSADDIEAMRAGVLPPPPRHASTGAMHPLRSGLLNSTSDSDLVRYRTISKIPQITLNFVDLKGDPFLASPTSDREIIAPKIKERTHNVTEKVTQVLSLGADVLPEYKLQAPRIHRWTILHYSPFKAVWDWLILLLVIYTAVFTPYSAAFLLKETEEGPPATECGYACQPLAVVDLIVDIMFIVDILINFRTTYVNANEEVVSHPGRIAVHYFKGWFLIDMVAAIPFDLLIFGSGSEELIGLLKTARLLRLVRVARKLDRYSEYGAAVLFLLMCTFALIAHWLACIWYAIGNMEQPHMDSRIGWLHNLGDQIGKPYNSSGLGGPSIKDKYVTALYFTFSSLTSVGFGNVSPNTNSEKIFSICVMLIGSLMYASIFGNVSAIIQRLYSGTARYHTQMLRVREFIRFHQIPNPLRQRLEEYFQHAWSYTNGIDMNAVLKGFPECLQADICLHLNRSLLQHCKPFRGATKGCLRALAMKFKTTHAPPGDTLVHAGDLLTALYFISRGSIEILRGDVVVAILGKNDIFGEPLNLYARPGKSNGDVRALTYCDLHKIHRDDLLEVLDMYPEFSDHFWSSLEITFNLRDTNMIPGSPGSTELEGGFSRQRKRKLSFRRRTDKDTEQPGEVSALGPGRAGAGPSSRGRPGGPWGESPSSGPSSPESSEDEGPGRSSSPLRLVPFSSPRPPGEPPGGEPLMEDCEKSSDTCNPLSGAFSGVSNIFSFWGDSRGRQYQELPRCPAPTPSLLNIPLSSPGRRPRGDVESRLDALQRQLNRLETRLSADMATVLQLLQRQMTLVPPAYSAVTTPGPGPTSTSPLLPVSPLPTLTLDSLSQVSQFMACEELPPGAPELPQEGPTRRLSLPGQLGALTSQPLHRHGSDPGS

| Structure (SMILES) | hERG current change (%, negative = inhibition) at 1uM [%] |
| --- | --- |
| COc1ccccc1NC(=O)NCCN1CCN(c2cccc(Cl)c2)CC1 | 3.67 |
| CCOc1ccccc1Nc1nc(N)nc(CN2CCCCC2C)n1 (stereo not shown) | -9.01 |
| Br.Cc1cccc(N2C(=O)SC(SC(=Nc3ccccc3)Nc3ccccc3)C2=O)c1 (stereo not shown) | 15.4 |
| O=C1CCCC2=C1C(c1ccc(Cl)cc1)C1C(=O)c3ccccc3C1=N2 (stereo not shown) | -5.98 |
| COc1ccc(OC2CCN(S(=O)(=O)c3ccc(OC)c(OC)c3)CC2)cc1 | -1.03 |
| COc1cc2c(cc1OC)C(c1cccs1)N(C(=O)c1cccnc1)CC2 (stereo not shown) | -22.2 |
| O=C(Nc1ccccc1C(=O)N1CCOCC1)C1CC(=O)N(c2ccc(F)cc2)C1 (stereo not shown) | 7.58 |
| Cc1ccsc1C1NC(=O)c2c(sc3c2CCN(C)C3)N1 (stereo not shown) | -1.97 |
| COc1cc2c(cc1OC)/C(=C/C(=O)c1ccc(F)cc1)NCC2 | 11.1 |
| O=C(CNC(=O)c1ccc(-c2ccccc2)cc1)OCc1c(F)cccc1Cl | 5.9 |
| Cc1ccc(C2C(C#N)=C(N)SC(N)=C2C#N)o1 | 0.166 |
| Cc1cc([N+](=O)[O-])nn1CCCC(=O)NC(C)c1ccccc1 (stereo not shown) | 2.3 |
| Cc1coc2cc3oc(=O)c(CCC(=O)NCCCn4ccnc4)c(C)c3cc12 | -15.1 |
| CN(CC(=O)NC1CCCCC1)S(=O)(=O)c1ccc(Br)s1 | 10.5 |
| CC1=C(C(N)=O)C(c2sccc2C)n2nnnc2N1 (stereo not shown) | 6.11 |
| O=C(CCl)N(c1ccccc1)C1CCS(=O)(=O)C1 (stereo not shown) | 6.05 |
| CC1CCC2(CC1)NC(=O)N(CC(=O)Nc1cccc(C#N)c1)C2=O (stereo not shown) | 6.35 |
| CC(C)(C)N(Cc1cc2ccccc2[nH]c1=O)C(=O)C1CCCCC1 | -0.0289 |
| C/C(=N\NC(=O)c1nnn(-c2nonc2N)c1CSc1ccc(C)cc1)c1ccco1 | -12.6 |
| Cc1cccc(OCCCCN2CCNCC2)c1 | 0.159 |

| Structure (SMILES) | hERG current change (%, negative = inhibition) at 1uM [%] |
| --- | --- |
| Cc1ccccc1NC(=O)COc1ccc(Br)cc1CNCCCO.Cl | 3.07 |
| CCCCNC(=O)CC(NS(=O)(=O)c1ccc(C)cc1)c1ccco1 (stereo not shown) | 13.7 |
| Cc1ccc(O)c(C(=O)c2cc(C#N)c3nc4ccccc4n3c2)c1 | 16.4 |
| Cc1ccc(NC(=O)Cc2c(O)c3ccccc3[nH]c2=O)c(C)c1 | 8.78 |
| CN(C)C(=O)NCc1ccc(S(N)(=O)=O)cc1 | 10.8 |
| CC1=C(C)C(=O)N(C(C)CCc2ccccc2)C1=O (stereo not shown) | 12.7 |
| O=[N+]([O-])c1cccc(Cl)c1N1CCOCC1 | 9.17 |
| Cc1ccccc1CCN(CC(=O)NCc1ccc(F)cc1)C(=O)c1csnn1 | 1.7 |
| COc1ccc(CN2CCCC(C(=O)c3cccc(OC(C)C)c3)C2)cc1Cn1cccn1 (stereo not shown) | -3.41 |
| COc1ccccc1N1CCN(C(=O)CSc2ncccc2-c2nc3ccccc3[nH]2)CC1 | -9.23 |
| O=P(CO)(Cc1ccccc1)Cc1ccccc1 | 2.15 |
| Cc1ccc(C)c(NC(=O)C2Cc3ccccc3CN2C(=O)OCc2ccccc2)c1 (stereo not shown) | 9.48 |
| Nc1ccncc1Cl | 10 |
| O=C(NCCN1CCOCC1)C1CCN(c2ncnc3c2sc2cccc(F)c23)CC1 | 6.28 |
| O=C(CSc1nnc(-c2ccc(Br)cc2)o1)Nc1cccc(C(=O)O)c1 | 1.64 |
| CC(=O)Nc1ccc(S(=O)(=O)N2CCN(c3ccc(C)c(Cl)c3)CC2)cc1 | 10.4 |
| CC1=CC(c2ccccc2)n2nc(NC(=O)CCC(=O)O)nc2N1 (stereo not shown) | 2.01 |
| Cc1ccc(NC(=O)C2CCCN(C(=O)Nc3ccc(F)cc3)C2)cc1 (stereo not shown) | 13.4 |
| CC(=O)Oc1ccc2c(C)c(CC(C)O)c(=O)oc2c1 (stereo not shown) | 11.5 |
| CCOC1(c2ccccc2)CC1C(=O)N/N=C/c1cccc([N+](=O)[O-])c1 (stereo not shown) | 12.2 |

| Structure (SMILES) | hERG current change (%, negative = inhibition) at 1uM [%] |
| --- | --- |
| CCN(CC(=O)Nc1c(F)cccc1F)C(=O)c1ccc(N2C(=O)c3ccccc3C2=O)cc1 | -0.192 |
| Cc1nc(NC(=O)CSc2nnc(C3CC3)n2C)sc1C | 15.7 |
| CC1N(C(=O)N2CCOCC2)CCN1S(=O)(=O)c1ccc(Cl)cc1 (stereo not shown) | 4 |
| CC[N+]1=C(C)C(C)(C)c2cc(C)ccc21.[I-] | 3.91 |
| Cc1c(C(=O)OCc2ccccc2)[nH]c2c1C(=O)CC(c1ccco1)C2 (stereo not shown) | 6.02 |
| FC(F)(F)c1nc2ccccc2n1CCNc1nc(CN2CCCCC2)cs1 | 16.8 |
| O=C(Cn1[nH]c(=O)c2ccccc2c1=O)N1CC=C(c2ccccc2)CC1 | 9.29 |
| CC(C)c1ccc(NC(=O)CN2C(=O)NC(C)(C3CC3)C2=O)cc1 (stereo not shown) | 9.24 |
| COc1ccc2[nH]c(C(=O)Nc3cccc(C)n3)cc2c1 | -9.72 |
| COc1ccc(C(O)c2coc3ccc(O)c(CN(C)C)c23)cc1 (stereo not shown) | -7.41 |
| COc1ccc2c(c1)C(=O)OC2CC(=O)O (stereo not shown) | 13.1 |
| COc1ccccc1C1/C(=C(/O)c2ccccc2)C(=O)C(=O)N1CC(C)C (stereo not shown) | 10.7 |
| COCc1cc(=O)[nH]c(/N=C(\N)Nc2ccc(Cl)c(Cl)c2)n1 | 13.9 |
| Cc1cc(C)n2nc(CNS(=O)(=O)c3c(F)c(F)c(F)c(F)c3F)nc2n1 | 16.6 |
| CCOc1ccc(-n2cc(C(=O)NC(C)C)c3cc(OC)c(OC)cc3c2=O)cc1 | 9.58 |
| Cc1noc(C)c1C(=O)Nc1ccc(F)cc1F | -1.94 |
| C=CCNC(=O)COC(=O)C1CCN(S(=O)(=O)c2ccc3c(c2)OCCO3)CC1 | 5.05 |
| O=c1[nH]c2ccccc2nc1-c1ccccc1 | 9.81 |
